{"source": "paper PMC6919601", "about": "“Identification of Plasmodium dipeptidyl aminopeptidase allosteric inhibitors by high throughput screening” (PLoS ONE, 2019)", "note": "Out of some 110,000 compounds screened, about 230 (0.21%) showed an effect of 50% or more. The list shows a part of the results.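 Further: 30 min substrate incubation versus DMSO and 10 µM JCP410 controls.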", "data": [{"biological_target": "DPAP1 (Plasmodium falciparum, UniProt Q8IIJ9)", "sequence (Q8IIJ9 whole entry, looked up)": "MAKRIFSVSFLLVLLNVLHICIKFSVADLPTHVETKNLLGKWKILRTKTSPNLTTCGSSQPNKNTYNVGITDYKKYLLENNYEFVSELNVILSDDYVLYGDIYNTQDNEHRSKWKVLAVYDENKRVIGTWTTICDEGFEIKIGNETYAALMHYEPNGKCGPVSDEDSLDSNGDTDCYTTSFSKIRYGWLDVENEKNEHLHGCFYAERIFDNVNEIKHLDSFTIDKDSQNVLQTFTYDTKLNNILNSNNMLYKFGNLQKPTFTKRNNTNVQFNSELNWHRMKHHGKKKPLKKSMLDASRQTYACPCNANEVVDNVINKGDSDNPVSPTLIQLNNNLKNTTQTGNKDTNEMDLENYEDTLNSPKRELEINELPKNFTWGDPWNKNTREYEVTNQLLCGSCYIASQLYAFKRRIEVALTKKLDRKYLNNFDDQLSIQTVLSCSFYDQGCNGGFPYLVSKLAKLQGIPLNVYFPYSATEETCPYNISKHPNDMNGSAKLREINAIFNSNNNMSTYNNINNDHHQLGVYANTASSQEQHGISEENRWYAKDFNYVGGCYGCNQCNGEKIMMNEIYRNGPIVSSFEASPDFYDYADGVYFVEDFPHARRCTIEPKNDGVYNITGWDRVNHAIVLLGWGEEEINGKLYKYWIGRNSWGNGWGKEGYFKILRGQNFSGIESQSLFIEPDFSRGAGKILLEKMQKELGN", "test": "primary screen, percent inhibition; read by cleavage of a fluorogenic dipeptide substrate; higher = more effect of the substance", "set-up": "species or system P. falciparum D10 trophozoite lysates; single well", "units": {"% Inhibition @ 10 uM": "%"}, "values": [{"smiles": "COc1ccc(C(=O)N(Cc2ccc(C)cc2)Cc2ccco2)cc1", "% Inhibition @ 10 uM": 6.01}, {"smiles": "O=C(CCSc1ccc2ccccc2n1)Nc1ccc(F)cc1", "% Inhibition @ 10 uM": -4.75}, {"smiles": "COc1ccc(C2=NN(c3nc(C)c(C(C)=O)s3)C(c3ccco3)C2)cc1", "note": "(stereo not shown)", "% Inhibition @ 10 uM": 2.42}, {"smiles": "CC(C)C[C@H](NC(=O)c1cccc(NC(=O)OC(C)(C)C)c1)C(=O)NCC#N", "% Inhibition @ 10 uM": 1.35}, {"smiles": "Cc1cccc(C(=O)Nc2c3c(nn2-c2ccc(Cl)cc2)CSC3)c1", "% Inhibition @ 10 uM": 1.39}, {"smiles": "O=C(Nc1nc2ccccc2s1)c1cccc(Cl)c1", "% Inhibition @ 10 uM": 6.97}, {"smiles": "CCC1(C)NC(=S)N(c2ccccc2)N1", "note": "(stereo not shown)", "% Inhibition @ 10 uM": -5.36}, {"smiles": "N#Cc1cccc(NC(=O)CCC(=O)O)c1", "% Inhibition @ 10 uM": -7.87}, {"smiles": "CC(=O)c1sc2nc(-c3ccccc3)c(-c3ccccc3)n2c1C", "% Inhibition @ 10 uM": -4.01}, {"smiles": "O=C(O)c1ccc(NS(=O)(=O)c2ccc(S(=O)(=O)N3CCOCC3)cc2)cc1", "% Inhibition @ 10 uM": -0.795}, {"smiles": "Cc1cccc(C(=O)Nc2ccc(S(=O)(=O)N3CCc4ccccc43)cc2)c1", "% Inhibition @ 10 uM": 2.27}, {"smiles": "Cc1noc(C(=O)NCCCn2ccnc2)c1Cl", "% Inhibition @ 10 uM": -3.45}, {"smiles": "O=C(c1ccc2c(c1)nc(S)n1c3ccccc3nc21)N1CCN(Cc2ccccc2)CC1", "% Inhibition @ 10 uM": 3.54}, {"smiles": "O=C(Nc1c(C(=O)N2CCN(c3ccccc3)CC2)cnn1-c1ccccc1Cl)c1ccco1", "% Inhibition @ 10 uM": 0.583}, {"smiles": "Cc1ccccc1OCC(=O)Nc1ccc(S(N)(=O)=O)cc1", "% Inhibition @ 10 uM": -2.8}, {"smiles": "COCc1[nH]nc2c1C(c1ccc(OC(C)C)cc1)C(C#N)=C(N)O2", "note": "(stereo not shown)", "% Inhibition @ 10 uM": -2.64}, {"smiles": "Cc1cc(C)c2c(N)nn(C(=O)c3ccc(Br)cc3)c2n1", "% Inhibition @ 10 uM": -3.34}, {"smiles": "O=C(Nc1ccccc1)c1cccc(N2C(=O)C3CCCCC3C2=O)c1", "note": "(stereo not shown)", "% Inhibition @ 10 uM": -0.553}, {"smiles": "COc1ccccc1C1CC(=O)NC(C)=C1C(=O)OCCSC", "note": "(stereo not shown)", "% Inhibition @ 10 uM": -4.81}, {"smiles": "COc1ccc(C(=O)O/N=C(\\N)c2ccc(OC)c(OC)c2)c(OC)c1", "% Inhibition @ 10 uM": 2.04}, {"smiles": "Cn1c(=O)c2sccc2n2c(CCCC(=O)N3CCC(Cc4ccccc4)CC3)nnc12", "% Inhibition @ 10 uM": -7.18}, {"smiles": "CCOC(=O)c1c(N)c(C#N)c(C)n1-c1ccc(Br)cc1", "% Inhibition @ 10 uM": -1.92}, {"smiles": "COc1ccc(CC(=O)O/N=C(\\N)c2ccccn2)cc1", "% Inhibition @ 10 uM": -3.06}, {"smiles": "Cc1ccc(SC(C)C(=O)NC2CC3CCC2C3)cc1", "note": "(stereo not shown)", "% Inhibition @ 10 uM": -0.25}, {"smiles": "CCCN1CCN(C(=O)C2CCN(C(=O)c3cc4sccc4n3C)CC2)CC1", "% Inhibition @ 10 uM": 3.4}, {"smiles": "COc1ccc2c(c1)CCC1C2=NN(/C(C)=C/C(C)=O)C1c1ccc([N+](=O)[O-])cc1", "note": "(stereo not shown)", "% Inhibition @ 10 uM": 4.54}, {"smiles": "CCOc1ccc2nc(SCC(=O)Nc3sc4c(c3C#N)CCC4)sc2c1", "% Inhibition @ 10 uM": -2.14}, {"smiles": "CCOC(=O)c1ccc(-c2ccc(/C=C3/SC(=N)N(c4nonc4NC(C)=O)C3=O)o2)cc1", "% Inhibition @ 10 uM": 2.18}, {"smiles": "COc1ccc2ccccc2c1CN1CCN(C(=O)c2ccncc2)CC1", "% Inhibition @ 10 uM": 2.3}, {"smiles": "CCOc1ccccc1CNC(=O)CCn1c(-c2ccc(F)cc2)cc(C(C)=O)c1C", "% Inhibition @ 10 uM": -1.7}, {"smiles": "COc1cccc(CN(C(=O)c2ccccc2C)C2CCS(=O)(=O)C2)c1", "note": "(stereo not shown)", "% Inhibition @ 10 uM": 5.17}, {"smiles": "CCOc1cc(-c2cc(C(=O)O)c3c(-c4ccc(C)cc4)[nH]nc3n2)ccc1O", "% Inhibition @ 10 uM": -4.58}, {"smiles": "COc1ccc(N(CC(=O)Nc2ccc(OC)c(OC)c2)S(C)(=O)=O)cc1", "% Inhibition @ 10 uM": 1.89}, {"smiles": "NS(=O)(=O)c1ccc(N/C=C/C(=O)c2cccnc2)cc1", "% Inhibition @ 10 uM": -1.66}, {"smiles": "Cc1nn(-c2c[nH]nc2N)c(C)c1Br", "% Inhibition @ 10 uM": 4.4}, {"smiles": "O=C1OC(/C=C/c2ccccc2)=NC/1=C/c1ccccc1F", "% Inhibition @ 10 uM": 3.42}, {"smiles": "C=CCSc1nc(N)c(C#N)c(-c2cccs2)c1C#N", "% Inhibition @ 10 uM": 0.962}, {"smiles": "CC(=O)Nc1ccc(NC2OCC(O)C(O)C2O)cc1", "note": "(stereo not shown)", "% Inhibition @ 10 uM": 1.42}, {"smiles": "Cc1oc2ccc(O)cc2c1C(=O)c1ccc(Br)cc1", "% Inhibition @ 10 uM": 17.2}, {"smiles": "COc1ccc(-c2cc(C(=O)NCCN3CCOCC3)c3ccccc3n2)c(OC)c1", "% Inhibition @ 10 uM": 1.27}, {"smiles": "COc1ccc(-c2noc(CSc3nnc(C)n3-c3ccccc3)n2)cc1", "% Inhibition @ 10 uM": -0.45}, {"smiles": "C/N=C1\\S/C(=C\\c2cccn2-c2ccccc2)C(=O)N1C", "% Inhibition @ 10 uM": -2.19}, {"smiles": "O=C(COc1ccccc1Cl)Nc1ccccc1NC(=O)COc1ccccc1Cl", "% Inhibition @ 10 uM": -4.82}, {"smiles": "Cc1sc(-c2nc3ccccc3nc2O)cc1-c1ccccc1", "% Inhibition @ 10 uM": -0.828}, {"smiles": "CC(C)CNC(=O)c1cc(-c2ccc(O)cc2)on1", "% Inhibition @ 10 uM": -1.28}, {"smiles": "CCCNc1ncnc2sc3c(c12)CCC(C)C3", "note": "(stereo not shown)", "% Inhibition @ 10 uM": -1.6}, {"smiles": "CCN(CCN(C)C)Cc1c(Cl)cccc1Cl", "% Inhibition @ 10 uM": -0.292}, {"smiles": "COc1ccc(-c2[nH]nc3nc(-c4ccccc4Cl)cc(C(=O)O)c23)cc1", "% Inhibition @ 10 uM": -4.8}, {"smiles": "Nc1ncc(Br)cc1S(=O)(=O)NCCC(=O)NCCCc1ccccc1", "% Inhibition @ 10 uM": -6.65}, {"smiles": "C[C@@H](Cc1ccccc1)NC(=O)N[C@@H](C)Cc1ccccc1", "% Inhibition @ 10 uM": -9.13}, {"smiles": "C=CCn1c(SCC(=O)NCCO)nc2ccccc2c1=O", "% Inhibition @ 10 uM": -7.34}, {"smiles": "O=C(O)C1CC=CCC1C(=O)N1CCN(C/C=C/c2ccccc2)CC1", "note": "(stereo not shown)", "% Inhibition @ 10 uM": -3.71}, {"smiles": "O=C(Nc1cccc(-c2nc3ccccc3s2)c1)C(c1ccccc1)c1ccccc1", "% Inhibition @ 10 uM": -2.47}, {"smiles": "CCSc1ncc(Cl)c(C(=O)Nc2nc3ccc(C)cc3s2)n1", "% Inhibition @ 10 uM": 2.19}, {"smiles": "Cc1cc(C)c2c(=O)n(CC(=O)N3CCN(C4CCCCC4)CC3)sc2n1", "% Inhibition @ 10 uM": 15.6}, {"smiles": "COc1ccc(C2CC(=O)N(C)C3=C2C(=O)CC(C)(C)C3)cc1", "note": "(stereo not shown)", "% Inhibition @ 10 uM": -4.06}, {"smiles": "CCN(CC)CCOc1nnc(-c2ccc(OC)cc2)c2ccccc12", "% Inhibition @ 10 uM": 21.6}, {"smiles": "Cc1ccc(C2=NN=C(NC(=O)CSc3nncn3C)SC2)cc1", "% Inhibition @ 10 uM": 6.82}, {"smiles": "CCOC(=O)N1CCN(C(=O)c2cc(-c3ccccc3)[nH]n2)CC1", "% Inhibition @ 10 uM": -2.13}, {"smiles": "O=C(Nc1cc([N+](=O)[O-])ccc1Cl)c1ccc(Cl)cc1", "% Inhibition @ 10 uM": -4.4}, {"smiles": "COC(=O)C1=C(O)/C(=C\\c2cc(C)n(-c3ccc(C)c(C)c3)c2C)N=C1C", "% Inhibition @ 10 uM": 3.43}, {"smiles": "Cc1nn(CC(=O)NC2CC2)c(=O)c2nn(-c3ccccc3)c(C)c12", "% Inhibition @ 10 uM": -2.15}, {"smiles": "COc1ccc(-c2noc(CC(=O)NC(C)CCc3ccccc3)n2)cc1", "note": "(stereo not shown)", "% Inhibition @ 10 uM": 1.1}, {"smiles": "COC(=O)c1[nH]c2c(c1C)C(=O)CC(c1ccc(Cl)cc1)C2", "note": "(stereo not shown)", "% Inhibition @ 10 uM": -1.18}]}]}
